Results as given in the supplement of paper PMC10126150.
Sequences with one replicate were seen in a single cluster, so their values are uncertain.

System: ATP
Assay: switch fluorescence ratio, 500 uM ATP over buffer (Cy3 cluster intensity, sum of 5 cycles each) (fold (ratio)); higher = stronger signal-on switching upon ATP binding; sequences stand for … in TCGTCGGCAGCGTCAGATGTGTATAAGAGACAGTTTTTTTTTTTTTTTTTTTTTTTTT…TC
Conditions: aptamer strand: ATP DNA aptamer (quencher-CACCTGGGGGAGTATTGCGGAGGAAGG + anchor), 100 nM annealed; ATP concentration: 500 uM; one replicate
Outline: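 Between each of five buffer/ATP cycles, the flow-cell was stripped with NaOH and re-annealed. Each cycle imaged Cy3-labelled switching-strand clusters, annealed to 100 nM quencher-labelled ATP aptamer on a modified Illumina MiSeq flow-cell, first in selection buffer and then after 15 min with 500 uM ATP at 22 °C. The fluorescence ratio is summed target-cycle over summed buffer-cycle Cy3 intensity per cluster, averaged per switch-domain sequence, with clusters outside 100-1000 RFU excluded.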
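Further: ATP exposure 15 min at 22 °C before imaging.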

Sequence	switch fluorescence ratio
AAAAAACGCA	1.13
AAAAAAGAGG	1.01
AAAAAATGCG	1.02
AAAAACCTAA	0.943
AAAAACCTTT	1.04
AAAAAGAAA	1.02
AAAAAGCCAA	1.04
AAAAAGGTA	0.989
AAAAAGTAA	1
AAAAAGTGGA	1.09
AAAAATTAGG	1.01
AAAAATTTAT	1
AAAACATGG	0.993
AAAACCGTGC	1.23
AAAACGCCCC	1.23
AAAACGGATA	0.98
AAAACGTGGT	1.03
AAAACTCGGT	0.982
AAAACTGTAG	1.06
AAAAGAGTAG	0.974
AAAAGATCCC	1.02
AAAAGATCTG	0.988
AAAAGATTCA	1.14
AAAAGCGATG	0.989
AAAAGCGGCT	1.11
AAAAGGACGC	1.08

Sequence	switch fluorescence ratio
AAAAGGGAAC	1.01
AAAAGTCAAA	1.01
AAAATAAGCC	1.03
AAAATAAGCG	0.964
AAAATAAGG	0.978
AAAATAGGTC	1.04
AAAATCAGGG	1.03
AAAATCGCCG	1.02
AAAATGAGGT	0.982
AAAATGGAC	1.01
AAAATGGCTC	0.989
AAAATGGGA	0.98
AAAATGGGAG	1.17
AAAATGTGCA	1.02
AAAATTGAAC	1.01
AAAATTGCTA	0.988
AAAATTGGAC	0.994
AAAATTTGT	1.02
AAACAAAGTC	1.06
AAACAAGTGG	1.06
AAACAGCCCA	0.972
AAACAGGATG	1.02
AAACAGTAAT	1.05
AAACATCGG	1
AAACATTTTT	1.01
AAACCAAGCT	1.05

Sequence	switch fluorescence ratio
AAACCAGACT	1.45
AAACCCTTGA	1.05
AAACCGAGTT	1.03
AAACCGGATT	1.37
AAACCGTGTG	0.993
AAACGCAAGA	2.78
AAACGCCATA	1.07
AAACGCCCGA	1.17
AAACGCCCGC	1.12
AAACGCGC	1.08
AAACGGAGGA	1.04
AAACGGGTTG	1.01
AAACGGTGT	0.999
AAACGGTTTG	1.02
AAACGTATAT	1.04
AAACGTCATA	1.09
AAACGTGGAT	1.02
AAACTACCAA	1.09
AAACTACTCC	1.54
AAACTAGATT	1.03
AAACTATTT	0.984
AAACTCAGTG	1.01
AAACTTAAAC	1.01
AAACTTATTA	0.976
AAACTTGAGC	0.99
AAACTTTGAC	1.05

Sequence	switch fluorescence ratio
AAAGAACTGG	0.988
AAAGAAGGTT	0.977
AAAGAAGTAG	1.01
AAAGAATATT	1.02
AAAGAATTAC	1.12
AAAGAATTGT	0.981
AAAGACAGTC	1.07
AAAGACGA	1.58
AAAGAGGGA	0.987
AAAGATATTA	1.04
AAAGATCTAG	0.994
AAAGATGCGA	1
AAAGCACCAA	1.07
AAAGCAGTCA	0.964
AAAGCCCCGT	0.97
AAAGCCTAAA	0.96
AAAGCCTCGT	1
AAAGCGAAGA	0.983
AAAGCGGGAC	1.8
AAAGCGGTAA	1.07
AAAGCGTGA	1
AAAGCTCGAG	0.995
AAAGCTTTGC	0.948
AAAGGAAGGC	1.02
AAAGGACTTA	1.02
AAAGGACTTC	1.06

Sequence	switch fluorescence ratio
AAAGGCACTT	1.04
AAAGGCGCCG	1
AAAGGCGTTT	0.978
AAAGGGATAC	1.19
AAAGGGGTGT	1.02
AAAGGGTGC	0.99
AAAGGTATGT	1.04
AAAGGTCAAT	0.976
AAAGGTCTGT	0.992
AAAGGTTG	0.985
AAAGTACGCA	1.21
AAAGTCAATC	1.14
AAAGTCGGCC	0.972
AAAGTCTGTT	0.99
AAAGTGACCG	1.06
AAAGTGCTTA	1.03
AAATAAGTCG	0.986
AAATAATACG	1.02
AAATAATGCT	1.03
AAATACTCTA	1.17
AAATAGCGGC	1.03
AAATAGGAGT	1.03
AAATAGTAGC	1.02
AAATAGTCTA	0.993
AAATAGTGAG	0.982
AAATATAAGA	1.03

Sequence	switch fluorescence ratio
AAATATCACT	1.01
AAATATCGT	0.968
AAATATGG	1
AAATCAAATG	0.91
AAATCAGGAT	1.05
AAATCCATGG	0.999
AAATCCCAGC	0.999
AAATCCCTGT	0.967
AAATCCCTTG	1.2
AAATCGAGGC	0.945
AAATGACCCT	1.1
AAATGCCT	1.17
AAATGCTAGA	1.02
AAATGGAGCA	1.05
AAATGGAGTT	1.05
AAATGGCAGT	0.994
AAATGGGCA	1.03
AAATGGGTAT	0.989
AAATGTCTCA	0.999
AAATGTGACC	1.05
AAATGTGTCC	0.918
AAATGTTACC	1.05
AAATTAATCG	1
AAATTACCTG	1.01
AAATTAGGCT	1.01
AAATTAGGGC	0.955

Sequence	switch fluorescence ratio
AAATTATCCG	0.979
AAATTCCTGG	1.01
AAATTCGATC	1.03
AAATTGAAAA	0.949
AAATTGGCCG	1
AAATTGTAAG	1.02
AAATTGTGCA	1.04
AAATTGTTGC	1.03
AAATTTATGG	1.01
AAATTTGGCA	0.99
AAATTTTTT	0.989
AACAAAATA	1.02
AACAACCCGA	1.02
AACAACTAGA	1.03
AACAAGCGAT	0.997
AACAATAG	1.1
AACAATCCTG	1.01
AACAATGACT	1.09
AACAATGAGC	1
AACAATGTTA	0.993
AACAATTTAG	1.02
AACACAATAT	1.2
AACACACTTT	1.15
AACACCTAAC	1.4
AACACGGTTT	0.978
AACAGACATT	1.06

Sequence	switch fluorescence ratio
AACAGCTTCT	0.974
AACAGCTTTT	0.987
AACAGGTTC	1.02
AACATATAAA	0.964
AACATGATCA	1
AACATGCGAA	0.937
AACATGTACG	1.15
AACATGTTGT	1.07
AACATTTACG	1.15
AACCAATGCA	1.05
AACCACAAGC	1.15
AACCAGTTGG	0.976
AACCATATGA	1.02
AACCATTCCA	1.02
AACCATTTCA	1.01
AACCCGGTGG	1.05
AACCCTGGGT	0.995
AACCGATATA	0.985
AACCGATGCA	1.15
